{
  "source": "PubChem BioAssay AID651820",
  "about": "(National Center for Advancing Translational Sciences (NCATS), 2012)",
  "note": "Hit rate of the full screen: of about 340,000 compounds, about 12,000 (3.5%) were called active. Inconclusive means that the source gave no clear call. Such entries were picked first, then a sample of the others. Calls come from the whole dose curve; as a rule, active = well fitted inhibition curve with a large enough effect; inconclusive = small, poorly fitted or top-dose-only effect, or another doubt; inactive = no such curve, though single readings can be large or run the other way. No potency is given beside an inconclusive call; the fits are too rough. Potency is the fitted concentration of half-maximal effect; tags give direction and shape of the fitted curve.",
  "data": [
    {"experiment": "qHTS Assay for Inhibitors of Hepatitis C Virus (HCV)", "conditions": "Huh7.5.1 HCVcc-Cre (HCVcc is cell-culture hepatitis C virus) infection, luciferase reporter, 44 h; series mostly up to 41.8 µM", "summary_of_the_method": "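1,000 cells/well; 4 h culture; + compound; + HCVcc-Cre (~0.5 moi); 44 h; luciferase substrate, RT 15 min; read 15 sec.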", "values": [
      {"smiles": "O=c1[nH]c(-c2ccccn2)cc2ccccc12", "Potency": "inconclusive [inhibitor, single point]"},
      {"smiles": "O=C(N/N=C/c1ccc([N+](=O)[O-])cc1)c1ccc(COc2ccccc2-c2ccccc2)cc1", "Potency": "inconclusive [inhibitor, partial curve]"},
      {"smiles": "CCCc1nc2c(c(=O)c3ccccc3n2C)c(=O)n1C1CCCCCC1", "Potency": "inconclusive [inhibitor, single point]"},
      {"smiles": "COc1cc(C)c(/C=C(\\C#N)C(=O)Nc2cccc(C)c2)cc1C(C)C", "Potency": "inconclusive [inhibitor, full curve, poor fit]"},
      {"smiles": "COc1ccc(N2CCN(C(=O)c3ccc4c(c3)CCN4S(=O)(=O)c3ccccc3)CC2)cc1", "Potency": "inconclusive [inhibitor, single point]"},
      {"smiles": "COc1ccccc1-c1sc2cc3c(cc2c1-c1ccc(OCCN2CCOCC2)cc1)OCO3", "Potency": "inconclusive [inhibitor, single point]"},
      {"smiles": "COc1ccccc1CNCC(=O)Nc1cc(S(=O)(=O)N2CCCCC2)ccc1C", "Potency": "inconclusive [inhibitor, single point]"},
      {"smiles": "O=C(COC(=O)C1CCC1)NCCc1ccc(Cl)cc1Cl", "Potency": "inactive"},
      {"smiles": "CN(C)S(=O)(=O)c1ccc(/C(O)=C2/C(=O)C(=O)N(Cc3cccnc3)C2c2ccncc2)cc1", "note": "(configuration not stated)", "Potency": "inactive"},
      {"smiles": "CCOc1ccccc1NC(=O)Cn1c(=O)c2ccccc2n(CC)c1=O", "Potency": "inconclusive [inhibitor, full curve]"},
      {"smiles": "COC(=O)c1c(NC(=O)CSc2nc3ccccc3c(=O)n2Cc2ccco2)sc(C)c1C", "Potency": "inactive"},
      {"smiles": "CCOC(=O)CNC(=O)CSc1nnc(-c2ccco2)n1Cc1ccco1", "Potency": "inactive"},
      {"smiles": "CC(CN1CCCC1)OC(=O)c1cccc(F)c1", "note": "(configuration not stated)", "Potency": "inactive"},
      {"smiles": "CCOC(=O)c1sc2ccccc2c1OC(=O)c1ccccc1OC", "Potency": "inconclusive [inhibitor, single point]"},
      {"smiles": "O=C(Nc1ccccc1)c1cccc(NC(=O)c2ccco2)c1", "Potency": "inactive"},
      {"smiles": "CCOC(=O)c1cccc(NC(=O)c2ccc(N(C)C)cc2)c1", "Potency": "inconclusive [inhibitor, partial curve, poor fit]"},
      {"smiles": "CN1CCN(c2ccc(NC(=O)c3cc4ccccc4o3)cc2)CC1", "Potency": "inconclusive [inhibitor, single point]"},
      {"smiles": "O=C(CCCN1C(=O)/C(=C\\c2ccccc2)SC1=S)Nc1ccccc1O", "Potency": "inconclusive [inhibitor, single point]"},
      {"smiles": "O=C(COc1ccc2c(-c3ccccc3)cc(=O)oc2c1)Nc1ccc(CCO)cc1", "Potency": "active: 7.08 µM"},
      {"smiles": "COc1ccc(NS(=O)(=O)c2ccc(NC(=O)c3ccc(N(C)S(C)(=O)=O)cc3)cc2)c(OC)c1", "Potency": "inconclusive [inhibitor, full curve]"},
      {"smiles": "COc1ccc2c(c1)c1ccccc1n2C", "Potency": "inconclusive [inhibitor, single point]"},
      {"smiles": "CC(=O)c1c(C)[nH]c(C(=O)Nc2cc(S(=O)(=O)N3CCCCC3)ccc2C)c1C", "Potency": "inconclusive [inhibitor, single point]"},
      {"smiles": "CNC[C@@H](C)NC[C@@H](Cc1ccccc1)NCCc1ccccc1", "Potency": "inconclusive [inhibitor, partial curve]"},
      {"smiles": "CC(=O)c1cccc(NC(=O)c2ccc(N(Cc3ccc(C)cc3)S(C)(=O)=O)cc2)c1", "Potency": "active: 12.6 µM"},
      {"smiles": "C=CCn1c(SCCOc2ccc(OC)cc2)nnc1C(C)NC(=O)Cc1ccc(OC)cc1", "note": "(configuration not stated)", "Potency": "inconclusive [inhibitor, single point]"},
      {"smiles": "c1ccc(-c2nnc(CSc3nnc(-c4ccncc4)n3Cc3ccco3)o2)cc1", "Potency": "inconclusive [inhibitor, single point]"},
      {"smiles": "COc1ccc(COC(=O)Nc2cc3c(C(F)(F)F)nn(C)c3s2)cc1", "Potency": "inconclusive [inhibitor, partial curve, poor fit]"},
      {"smiles": "Cc1ccccc1C(O)(Cc1ccccc1)C1CN2CCC1CC2", "note": "(configuration not stated)", "Potency": "inconclusive [inhibitor, single point]"},
      {"smiles": "COc1ccc2ccccc2c1CNC(C)c1ccccc1", "note": "(configuration not stated)", "Potency": "active: 5.62 µM"},
      {"smiles": "CC(C)CCN(N=O)[C@@H](Cc1ccccc1)CN(N=O)[C@@H](Cc1ccccc1)CN(C)N=O", "Potency": "inconclusive [inhibitor, single point]"},
      {"smiles": "CN(C)N=Nc1nc2c(c(=O)n(C)c(=O)n2C)n1C", "Potency": "inconclusive [inhibitor, full curve, poor fit]"},
      {"smiles": "Cc1nc(N2CCN(c3ccccc3O)CC2)c2c(-c3ccccc3)csc2n1", "Potency": "inconclusive [inhibitor, partial curve]"},
      {"smiles": "Cc1cc(C(F)(F)F)nc(SCC(=O)c2cccc([N+](=O)[O-])c2)n1", "Potency": "inconclusive [inhibitor, partial curve, poor fit]"},
      {"smiles": "CC(Cc1ccc(Cl)cc1)N1CCC(n2nccc2NC(=O)C2CCCC2)CC1", "note": "(configuration not stated)", "Potency": "inconclusive [inhibitor, partial curve]"},
      {"smiles": "Cc1c(OC(C)C(=O)N[C@@H](Cc2ccccc2)C(=O)O)ccc2c3c(c(=O)oc12)CCCC3", "note": "(some centres not stated)", "Potency": "inconclusive [inhibitor, partial curve]"},
      {"smiles": "Cc1nn(C)c(Cl)c1CN1CCCC(C(=O)Nc2cccc(-n3cccn3)c2)C1", "note": "(configuration not stated)", "Potency": "inconclusive [inhibitor, single point]"},
      {"smiles": "FC(F)(F)COc1nc(N2CCCCC2)nc(N2CCNCC2)n1", "Potency": "inconclusive [inhibitor, partial curve]"},
      {"smiles": "Cc1ccc(OCc2cc(C(=O)NC(C)Cc3cccnc3)no2)cc1C", "note": "(configuration not stated)", "Potency": "inconclusive [inhibitor, partial curve]"},
      {"smiles": "Cc1cccc(C)c1NC(=O)CSCC(=O)O", "Potency": "inactive"},
      {"smiles": "Cc1cccc(Sc2nc(-c3ccccc3)ccc2C#N)c1", "Potency": "inconclusive [inhibitor, single point]"},
      {"smiles": "C[C@H](NS(=O)(=O)c1ccccc1F)C(=O)OCC(=O)Nc1ccc2c(c1)OCCO2", "Potency": "inconclusive [inhibitor, single point]"},
      {"smiles": "CCCCNC(=O)CCC(=O)Nc1ccc2nc(N3CCOCC3)cc(C)c2c1", "Potency": "inconclusive [inhibitor, partial curve]"}
    ]}
  ]
}
